These results are taken from PubChem BioAssay AID256 (DTP/NCI, 2004).

This test has as its system CD2F1 mice, L1210 leukemia ip, survival T/C. Briefly: NCI In Vivo Anticancer Drug Screen. Data for tumor model L1210 Leukemia (intraperitoneal) in CD2F1 (CDF1) mice. The settings on record: vehicle: saline, higher = longer survival. As to the method:
The antitumor activity of compounds was measured in mice bearing transplantable tumors. Survival or tumor size were measured and the results are expressed as the measurement made in the treated group (T) divided by the measurement made in the vehicle treated control group (C). The tumor model used in this assay is L1210 Leukemia (intraperitoneal) in CD2F1 (CDF1) mice

Inconclusive results and toxic doses are left out. Some entries of the source have several records that differ or are many. This is not the full list of results. An entry can have further records. Values that stand side by side do not match, cause unknown; they may come from other doses, times, organisms or constructs than stated.

On to `O=C1C=CN(C2OC(CO)C(O)C2O)C(=O)C1` (stereo not drawn), for which the T/C (endpoint: median survival time, dose: 100.0 mg/kg/injection, schedule: Q01DX009 (ip)) is 110 % of control and 180 % of control. As for `COc1cccc2c1C(=O)c1c(O)c3c(c(O)c1C2=O)CC(O)(C(=O)CO)CC3OC1CC(N)C(O)C(C)O1` (stereo not drawn), the T/C (endpoint: mean survival time, dose: 10.0 mg/kg/injection, schedule: Q04DX003 (ip)) is 123 % of control and 150 % of control. Consider `NCCCNCCCCNC(=O)C(O)NC(=O)CC(O)CCCCN=C(N)N` (stereo not drawn), for which the T/C (endpoint: median survival time, dose: 0.78 mg/kg/injection, schedule: Q01DX009 (ip)) is 117 % of control and 150 % of control.
